In PubChem BioAssay AID2202238 (Ras Initiative Chemistry Research Team, Frederick National …, 2025):
Some of the results follow. Further columns of the screen follow, without active or inactive calls.

Target: GTPase KRas (Homo sapiens) (UniProt P01116)
Experiment: Fragment capture on engineered cysteines, share of protein labelled (AID 2202238)
Set-up: protein at 5 µM with 500 µM competing thiol for 1.5 h
Conditions: KRAS G12D cysteine mutants, disulfide tethering, MALDI-TOF labeling, stronger effect = higher value, fragment at 500 µM
[1] = measured here: G60C mutant labeling
[2] = measured here: G75C mutant labeling
[3] = measured here: H94C mutant labeling
[4] = measured here: I36C mutant labeling
[5] = measured here: L120C mutant labeling
[6] = measured here: M67C mutant labeling
[7] = measured here: M72C mutant labeling
[8] = measured here: N26C mutant labeling
[9] = measured here: N86C mutant labeling
[10] = measured here: P121C mutant labeling
[11] = measured here: S122C mutant labeling
[12] = measured here: S136C mutant labeling

UniProt P01116, sequence (P01116 whole entry, looked up, the tested form may be a part): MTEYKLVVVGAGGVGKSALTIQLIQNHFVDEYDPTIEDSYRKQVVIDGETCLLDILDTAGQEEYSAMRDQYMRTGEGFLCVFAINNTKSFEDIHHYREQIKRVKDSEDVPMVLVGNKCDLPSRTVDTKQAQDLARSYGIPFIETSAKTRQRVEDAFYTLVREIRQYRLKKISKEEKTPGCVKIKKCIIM

SMILES | percent labeling [1] | percent labeling [2] | percent labeling [3] | percent labeling [4] | percent labeling [5] | percent labeling [6] | percent labeling [7] | percent labeling [8] | percent labeling [9] | percent labeling [10] | percent labeling [11] | percent labeling [12]
O=C(NCCS)C1CCC(NC(=O)C2CC2)CC1 (stereo unspecified) | 28.2% | 11.9% | 38.4% | 28.5% | 31.4% | 30.6% | 21% | 35.9% | 28.5% | 34% | 32% | 50%
Cc1ccc(OC2CCN(C(=O)CCS)CC2)cc1 |  | 14.9% | 26.7% | 21.1% | 22.3% | 32.4% | 31.2% |  | 15.2% | 21.7% | 20.1% | 38.1%
O=C(Cn1cnc(-c2ccccc2)cc1=O)NCCS | 21.2% | 6.2% | 17.8% | 19.7% | 33.6% | 21.1% | 23.9% | 35% | 18.6% | 19.8% | 15.6% | 20.9%
Cc1ccc(C(=O)NCCS)cc1NC(=O)c1ccccc1 | 29.8% | 9.8% | 14.6% | 12% | 24.7% | 17.9% | 22.8% | 26.7% | 10.4% | 17.5% | 9.9% | 15.4%
O=C(CN1CCc2ccccc2C1=O)NCCS | 37.6% | 13.7% | 32.2% | 26% | 56.8% | 32.5% | 24.6% | 37% | 24.7% | 36.7% | 34.7% | 50.9%
O=C(NCCS)c1ccn2cc(C(F)(F)F)nc2c1 | 18.8% | 11.7% | 17.5% | 17.7% | 25.4% | 15.6% | 24.6% | 29.4% | 19% | 16.9% | 14.9% | 26.1%
COc1ccc(-c2ncc(C(=O)NCCS)s2)cc1OC | 28.9% | 7.7% | 13% | 13.2% | 10.3% | 0% | 26.8% | 18.4% | 5.9% | 10% | 3.2% | 9.1%
CCCOc1nc2ccccc2cc1C(=O)NCCS | 25.8% | 11.7% | 17.8% | 7.6% | 14% | 10.3% | 34.1% | 28% | 9.2% | 14.7% | 10% | 17.4%
Cc1cccc(NC(=O)N2CCCC(C(=O)NCCS)C2)c1 (stereo unspecified) | 19.5% | 10.3% | 19.9% | 14.8% | 19.1% | 15.8% | 12.1% | 23.2% | 12% | 15.9% | 10% | 20.1%
O=C(NCCS)c1ccc(Oc2cccc(Cl)c2Cl)cc1 | 45.6% | 21.4% | 13.1% | 23.2% | 16.8% | 54.7% | 63.4% | 25.5% | 9.5% | 13.1% | 0% | 21.1%
O=C(NCCS)c1cc(OCC(F)(F)F)c2ccccc2n1 | 24.2% | 9.4% | 12.4% | 7% | 8.4% | 0% | 15.7% | 13.9% | 0% | 8.3% | 3% | 0%
Cc1cc(C)c2cc(C(=O)NCCS)sc2n1 | 20.8% | 16.1% | 11.1% | 8.3% | 11.3% | 12.2% | 33% | 30.8% | 14.7% | 8.1% | 8.9% | 21.2%
O=C(CCc1nc2cc(Br)ccc2s1)NCCS | 22.1% | 5.4% | 17.6% | 5.2% | 9% | 7.1% | 13.6% | 17.7% | 5.2% | 6.2% | 7.2% | 9%
CN(C)CCOc1ccc(NC(=O)CCS)c(F)c1 |  | 15.5% | 39.4% | 53% | 35.7% | 49.6% | 40.4% |  | 62.2% | 33.2% | 35.7% | 52.7%
CC(C)(C)OC(=O)NCc1nc(C2CCN(C(=O)CCS)CC2)n[nH]1 |  | 12.9% | 20.1% | 0% | 25.4% | 27.6% | 17% |  | 26.3% | 25.3% | 29.1% | 43.5%
N#Cc1c(N)sc2c1CCN(C(=O)CCS)C2 |  | 6.5% | 12.3% | 18.5% | 13.2% | 17.1% | 11.6% |  | 8.3% | 16.9% | 16.9% | 28.2%
Cc1ncc(NC(=O)CCS)cc1C(N)=O |  | 23.2% | 23.4% | 35.5% | 25.8% | 31% | 25.1% |  | 26.7% | 31.1% | 33.6% | 44.8%
Cc1nn(Cc2ccc(Cl)cc2)c2sc(C(=O)NCCS)cc12 | 30.2% | 14% | 16% | 25.8% | 13% | 15.6% | 62.1% | 26% | 3.2% | 7% | 0% | 46.1%
O=C(Cc1ccc2c(c1)OC(F)(F)O2)NCCS | 42.9% | 15.4% | 28.5% | 16.2% | 26.6% | 19.5% | 26% | 32.2% | 16.8% | 20% | 19.6% | 26.3%
O=C(CCS)NC1c2ccccc2CC12CCOCC2 (stereo unspecified) |  | 12.3% | 40.4% | 43% | 29.3% | 43.4% | 27.2% |  | 31.8% | 36.1% | 36% | 67.4%
O=C(NCCS)c1coc(C2CCCCC2)n1 | 22.2% | 16.6% | 16.7% | 18.8% | 24.8% | 13.7% | 40.9% | 25.5% | 10.3% | 13.9% | 13% | 40%
CC(CC(=O)NCCS)NC(=O)C1CCCC1 (stereo unspecified) | 27.7% | 11.6% | 29.6% | 23.4% | 34.8% | 26.9% | 16.8% | 29.4% | 25.6% | 34.8% | 33.8% | 42.1%
Cc1cc(C)c(C(=O)NC2CCN(C(=O)CCS)CC2)o1 |  | 12.7% | 31.2% | 39.2% | 30.9% | 35.4% | 23.8% |  | 25.4% | 37.6% | 38.2% | 50.6%

SMILES | percent labeling [1] | percent labeling [2] | percent labeling [3] | percent labeling [4] | percent labeling [5] | percent labeling [6] | percent labeling [7] | percent labeling [8] | percent labeling [9] | percent labeling [10] | percent labeling [11] | percent labeling [12]
COc1ccc(C(=O)NC(C(=O)NCCS)c2ccccc2)cc1 (stereo unspecified) | 36% | 10.3% | 16.4% | 9.9% | 27.2% | 13% | 40.4% | 23.1% | 9.2% | 13.9% | 9.5% | 39.5%
CCCCN(C)c1ncc(Cl)c(C(=O)NCCS)n1 | 29.9% | 13.2% | 16.8% | 10% | 17.5% | 13.6% | 41.5% | 25.2% | 8.8% | 15.9% | 9.5% | 17.1%
CCOC(=O)c1n[nH]c2c1CN(C(=O)CCS)CC2 |  | 13% | 35.8% | 34.8% | 32.1% | 37.5% | 29.1% |  | 20.9% | 30.6% | 35.1% | 62.4%
O=C(Cn1nc(C(F)F)cc1C(F)F)NCCS | 58.9% | 17.7% | 37.3% | 28.7% | 49.7% | 32.9% | 24.4% | 34.9% | 36.9% | 35.7% | 33.4% | 36.5%
Cc1cc(=O)c(C(=O)NCCS)nn1-c1ccccc1F | 45.2% | 20.6% | 38.2% | 33.1% | 53.5% | 40.2% | 48.3% | 41.6% | 26% | 28.6% | 29.2% | 72.7%
CCOC(=O)c1nn(-c2ccccc2)c2c1CN(C(=O)CCS)CC2 |  | 7.9% | 18% | 11.8% | 11.4% | 22.4% | 22.8% |  | 8.6% | 12.3% | 8.6% | 49.3%
O=C(CCS)NCC12CCC(CO)(CC1)OC2 |  | 6.2% | 26.9% | 31.9% | 26.1% | 28.4% | 9.2% |  | 16.7% | 29.5% | 34.4% | 41.6%
O=C(CCS)Nc1ccc(OCc2ccccc2)nc1 |  | 4.5% | 6.9% | 17.5% | 12.2% | 26.6% | 22.1% |  | 4.6% | 10% | 10.3% | 17.5%
CC(Cn1cnc2c(cnn2C)c1=O)NC(=O)CCS (stereo unspecified) |  | 6.9% | 29% | 41.1% | 24.8% | 42.5% | 11.6% |  | 25% | 38.4% | 30% | 50.2%
CCc1nc2nccc(C(=O)NCCS)c2[nH]1 | 19.6% | 19.4% | 19.4% | 17% | 14% | 25.4% | 32.5% | 34% | 11.1% | 9.3% | 10.7% | 36%
O=C(CCS)NCc1cccc(C(F)F)c1 |  | 18.7% | 38.9% | 40.9% | 26.1% | 38.5% | 35.2% |  | 34% | 34% | 33.9% | 49.9%
O=C(NCCS)c1ncn2cc(Cl)ccc12 | 17.2% | 16.6% | 24.5% | 13.1% | 32.1% | 10.3% | 38.7% | 28.1% | 8.3% | 22.5% | 12% | 31%
Cc1nn(C)c2ncc(NC(=O)CCS)cc12 |  | 13% | 21.2% | 21.3% | 23.4% | 20.3% | 34.5% |  | 18.2% | 21.4% | 17.9% | 41.7%
O=C(CCS)Nc1ccc(-c2ccccc2)cc1F |  | 6.1% | 13.5% | 30.5% | 15.5% | 11.4% | 60.4% |  | 21.8% | 14.2% | 12% | 39.5%
Cc1[nH]cnc1C(=O)NCCS | 0% | 0% | 4.7% | 6.1% | 6.7% | 6.1% | 4% | 6.4% | 3.7% | 4% | 5.6% | 8.9%
CC1(C)CCc2onc(C(=O)NCCS)c2C1 | 27.8% | 17% | 24.4% | 13.3% | 22.4% | 12.2% | 57.7% | 27.3% | 13.7% | 15.1% | 11.8% | 30.1%
O=C(NCCS)C1CCCN1c1ncnc2ccccc12 (stereo unspecified) | 34.8% | 12.9% | 32.1% | 31.8% | 37.2% | 32.8% | 28% | 38.9% | 26.6% | 27% | 23.3% | 36.8%
O=C(CCS)NCc1cccc(OCc2ccccc2)c1 |  | 8.2% | 19.4% | 20.9% | 14% | 20.6% | 30.4% |  | 15.6% | 14.2% | 15% | 25.6%
Cn1cnc(-c2ccc(C(=O)NCCS)cc2)n1 | 26% | 15.1% | 21.5% | 19.1% | 23.2% | 26.5% | 34.1% | 44.8% | 33.8% | 19.2% | 25% | 34.2%
O=C(NCCS)c1ccc(-c2csnn2)cc1 | 6.1% | 5.7% | 6.1% | 5.7% | 0% | 5.4% | 34.4% | 19% | 0% | 0% | 11.4% | 12.8%
Cc1nn(C)c(NC(=O)CCS)c1-c1ccccc1 |  | 22.2% | 43.6% | 42.2% | 34.9% | 45% | 38.8% |  | 19.9% | 33.8% | 31.9% | 55.8%
Cc1c(C(=O)NCCS)ccn1Cc1ccccc1 | 30.4% | 12.9% | 20.9% | 12.2% | 26.5% | 24.4% | 29.3% | 24.3% | 9.5% | 16.2% | 13.4% | 22.1%
Cc1nn(C)cc1C1CCCN1C(=O)CCS (stereo unspecified) |  | 9.3% | 27.2% | 32.5% | 18% | 30.5% | 13% |  | 15.3% | 25.3% | 33.2% | 46.4%
